Assay results: PubChem BioAssay (NCATS)
Inconclusive results, whose numbers are uncertain, are shown with a selection of clear calls. Potencies of inconclusive entries are left out as doubtful fits. The source made the active and inactive calls. The call rests on the fitted dose curve; in most records, active means well fitted cell-killing curve with a large enough effect; inconclusive means small, poorly fitted or top-dose-only effect; inactive means flat fitted curve, though single readings scatter.

Assay: Cellular viability qHTS for adrenocortical cancer (ACC) cell line NCI-H295R (AID 1963990); further: nearly all actives have a fitted effect of over 60% in size;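 on activity change, negative = viability loss: 0% = DMSO only wells and -100% = full killing with cytotoxic reference compound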
Details: CellTiter-Glo ATP luminescence, 48 h; activity change, negative = viability loss: at 46.1 µM (top of the series)
Outline: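 Readout: CellTiter-Glo luminescence, 20 min RT. Exposure: 48 h, 37C/5% CO2. Cells: NCI-H295R, ITS-DMEM serum-free. Range: up to 46 uM. Analysis: 4PL fit, IC50 plus efficacy.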
Potency means the concentration at half of the fitted maximal effect; tags describe the fitted curve by direction and shape.

Compound	Potency	activity change, negative = viability loss
CN1CCN(c2cc3c(nn2)Oc2ccccc2N3C)CC1	inactive	–
NC1[C@H]2CN(c3nc4c(cc3F)c(=O)c(C(=O)O)cn4-c3ccc(F)cc3F)C[C@@H]12 (some centres not stated)	inconclusive [cytotoxic, single point]	–
CCCc1cc(C(=O)N[C@H](Cc2ccc(-c3cccc(OC(F)(F)F)c3)nc2)C(=O)N[C@@H]2CCNC2)sc1C	inconclusive [cytotoxic, partial curve, poor fit]	–
CCOC(=O)OCC/C(SC(=O)OCC)=C(\C)N(C=O)Cc1cnc(C)nc1N	inconclusive [cytotoxic, single point]	–
NCC(=O)O	inconclusive [cytotoxic, partial curve, poor fit]	–
O=C(/C=C/c1cccnc1)NCCCCC1CCN(C(=O)c2ccccc2)CC1	–	inconclusive: -115%
C=CC(=O)Nc1cccc(Nc2nc(Nc3ccc(OCCOC)cc3)ncc2F)c1	active: 3.98 µM	–
CN1CCN(C2CCN(C(=O)Nc3cc(Oc4ccc(NC(=O)C5(C(=O)Nc6ccc(F)cc6)CC5)c(F)c4)ccn3)CC2)CC1	active: 25.1 µM	–
CCCCCCCCCCCCCCCCC(C(=O)O)C(O)(CC(=O)O)C(=O)O (configuration not stated)	inconclusive [cytotoxic, single point]	–
CCCCOc1ccc(C(=O)CCN2CCCCC2)cc1	active: 8.2 µM	–
COC(=O)C1=C(C)NC(COC(N)=O)=C(C(=O)OC(C)C)C1c1cccc(Cl)c1Cl (configuration not stated)	active: 20.6 µM	–
CC(C)(C)c1[nH]cnc1/C=c1\[nH]c(=O)/c(=C/c2ccccc2)[nH]c1=O	inconclusive [cytotoxic, full curve]	–
